Survival data for 88 compounds are collected here from PubChem BioAssay AID463173 (ICCB-Longwood Screening Facility, Harvard Medical School, 2010).

Out of some 52,000 compounds screened, about 4,300 (8.3%) were called active. Cut-off read from the data, not from the text of the source: active = survival mostly below about 52% (no sharp cut-off); inactive = mostly above about 56%. Some of the results follow.

In this assay the test system is DeltatarO mutant. Kind of assay: S. aureus survival, RN4220 and DeltatarO strains – OD600, teichoic acid synthesis inhibitors, primary screen (AID 463173). Particulars: S. aureus RN4220 wild type/DeltatarO growth, OD600, 18 h, hits give low values, screened at 18.75 µg/mL (by protocol).
With `Cc1cc(NC(=O)c2ccccc2C)no1`, the survival was inactive: 100%.

`Cc1coc2cc3oc(=O)c(CC(=O)NCc4ccccc4)c(C)c3cc12`: the survival is inactive: 79%.

For `CC(=O)N1CCCc2cc(S(=O)(=O)N3CCCC(C(=O)Nc4ccc(C)c(C)c4)C3)ccc21` (stereo not drawn), the survival was inactive: 74%. Then `CC(C)(C)c1ccc(S(=O)(=O)Nc2ccc(O)c(Sc3nc4ccccc4s3)c2)cc1`, with active: -4%. For `Cc1ccc(C(=O)Nc2ccc3oc(-c4cccnc4)nc3c2)c(Cl)c1`, the survival is inactive: 88%. As to `COc1cccc(-c2cnc(NCc3ccccc3Cl)n2C)c1`, the survival was inactive: 51%. In the case of `O=S(=O)(Nc1cccc(-c2ccc(N3CCOCC3)nn2)c1)c1ccc(F)cc1F` it was inactive: 62%; in that of `CN(C)c1ccc(C(C(=O)NCc2ccccc2)N(Cc2ccco2)C(=O)c2snc(C(N)=O)c2N)cc1` (stereo not drawn), inactive: 110%; in that of `O=C(Nc1nc(-c2ccc(Br)cc2)ns1)c1ccccc1F`, inactive: 79%.

Consider `CCCc1nn2c(C)c(-c3ccccc3)nc2s1`, for which the survival is inactive: 99%. Then `COC(=O)CCN(C(=O)c1c(C)oc2ncnc(N3CCOCC3)c12)c1ccccc1`, with active: 8%. In the case of `Cc1cccc(N2CCN(C(=O)C3CCN(S(=O)(=O)c4ccc5c(c4)oc(=O)n5C)CC3)CC2)c1C`, the survival is inactive: 91%. Consider `Cc1cc(C)c2oc(C(=O)Nc3ccc(S(=O)(=O)N(C)c4ccccc4)cc3)cc(=O)c2c1`, for which the survival was inactive: 70%. In the case of `O=c1c2c3c(sc2n(Cc2cc(=O)n4ccccc4n2)c(=O)n1-c1ccc(Cl)cc1)CCC3`, the survival was inactive: 84%. For the compound `Cc1ccc(-n2ncc(C(=O)N3CCC(c4ccccc4)C3)c2C2CCN(C(=O)OC(C)(C)C)CC2)cc1` (stereo not drawn), the survival was inactive: 77%. As for `CCCCOc1ccc(CNC(=O)c2ccc(NC(=O)N3CCSc4ncccc43)cc2)cc1`, the survival is inactive: 90%. As to `CCN(c1cc(C)cc(C)c1)S(=O)(=O)c1nnc(NC(=O)c2cccc(F)c2)s1`, the survival is active: 37%. In the case of `Cc1ccc(OCc2n[nH]c(=S)n2C2CCCCC2)cc1` it was inactive: 99%; in that of `CCCOc1ccc(C2C(=O)N(C3CCCCCC3)CC(=O)N2CCCOCC)cc1OC` (stereo not drawn), inactive: 102%; in that of `Cc1ccccc1NC(=O)c1sc2nc(N3CCOCC3)c3c(c2c1N)CC(C)(C)OC3`, inactive: 75%. In the case of `CCOc1ccccc1N(C)C(=O)Cn1nc(Cc2cccnc2)c2ccccc2c1=O` it was inactive: 82%. Then `COC(=O)CSc1nnc2n(-c3ccccc3)c(=O)c3c4c(sc3n12)COC(C(C)C)C4` (stereo not drawn), with inactive: 123%; and `CC(C)NC(=O)Cn1c(SCC(=O)N2CCc3ccccc32)nc2ccccc21`, with inactive: 97%. As for `CCC(=O)N1CCc2cc(S(=O)(=O)N(C)c3cccc(C)c3)ccc21`, the survival was inactive: 82%.

Consider `O=C(/C=C/c1ccccc1)N1CCN(Cc2cc(=O)n3nc(-c4ccccc4)sc3n2)CC1`, for which the survival is inactive: 90%. Turning to `CCN(c1ccc(C)cc1)S(=O)(=O)c1nnc(NC(=O)c2cccs2)s1`, the survival is active: 14%. As to `O=C(O)CCCN1C(=O)C(=O)/C(=C(/O)c2ccccc2)C1/C=C/c1ccccc1` (stereo not drawn), the survival was inactive: 64%. `CCOc1ccccc1NC(=O)N1CCN(S(=O)(=O)c2ccc3c(ccn3C)c2)CC1`: the survival was inactive: 76%. Turning to `Nc1c(-c2nc(-c3ccccc3)no2)nnn1CC(=O)Nc1ccccc1`, the survival is inactive: 79%. Then `COc1ccccc1CNC(=O)Cn1ncc2c(C)n(Cc3ccccc3Cl)c(C)c2c1=O`, with inactive: 57%; and `Cc1ccc(-c2ccc(CCC(=O)O)n2-c2ccc(C(C)C)cc2)cc1`, with inactive: 44%. Then `Cc1nnc(SCc2ccccc2)n1N`, with active: 61%; and `CCN(CC)CCNC(=O)c1cc2c(=O)[nH]c3ccc(C)cc3c2s1`, with inactive: 107%; and `Cc1ccc(NC(=O)/C(C#N)=C\c2ccc(Cl)cc2Cl)cc1C`, with active: 29%. `COc1ccc2c(c1)c1c(c(=O)n(CCc3ccccc3)c(=O)n1Cc1ccc(Cl)cc1)n2C`: the survival was inactive: 79%. Then `Cc1ccc(-c2nc3c(C)cccn3c2Nc2ccccc2C)s1`, with active: 0%; and `COc1ccc(NC(=O)C(C)Sc2nc(N)cc(=O)[nH]2)cc1` (stereo not drawn), with inactive: 97%.

As to `Cc1ccc(F)cc1NC(=O)Cn1c(=O)nc(-c2ccccc2F)c2cc(Cl)ccc21`, the survival is inactive: 86%. Then `Cc1cc(=O)[nH]c(SCSc2nc(C)cc(=O)[nH]2)n1`, with inactive: 102%; and `COc1ccc(C2=C(C)C(=O)N(Cc3ccc(C(=O)Nc4cccc(F)c4)cc3)S2(=O)=O)cc1`, with inactive: 89%. As to `CC1CCCN(c2nc3c(S(=O)(=O)c4ccc(C(C)C)cc4)nnn3c3ccsc23)C1` (stereo not drawn), the survival was inactive: 54%.

For the compound `O=C(NCc1ccc2c(c1)OCO2)c1ccc2c(c1)N(Cc1cccc(Cl)c1)C(=O)c1ccccc1S2=O` (stereo not drawn), the survival was inactive: 75%. Regarding `Cc1c(Cl)cccc1NC(=O)C1CCCN(c2nnc(-n3c(C)ccc3C)s2)C1` (stereo not drawn), the survival was inactive: 91%. Then `Cc1ccc(CSC2=Nc3ccccc3C3=NC(CCC(=O)NCc4cccs4)C(=O)N23)cc1` (stereo not drawn), with inactive: 94%. In the case of `O=C(NCC(c1ccc2c(c1)OCO2)N1CCN(c2ccccc2)CC1)C(=O)Nc1cccc(F)c1` (stereo not drawn) it was inactive: 66%; in that of `CC(=O)Nc1ccc(C(=O)CSc2nnc3scc(-c4ccccc4)n23)cc1`, inactive: 89%. For `CCN(CCCNC(=O)c1ccc(Sc2ccc(F)cc2)c(NC(C)=O)c1)c1ccccc1`, the survival is inactive: 90%. On to `COc1ccc(CNC(=O)Cn2c(=O)nc(-c3ccccc3F)c3cc(Cl)ccc32)cc1`, for which the survival was inactive: 72%. Then `CCN(CC)C(=O)CSc1nc2cc3c(cc2c(=O)n1CCCCCC(=O)NCc1ccc(OC)cc1)OCO3`, with active: -1%; and `COc1cc2c(-c3ccccc3O)nc3c(c(C)nn3-c3ccccc3)c2cc1OC`, with inactive: 68%; and `CN1CCN(C(=O)C(C(=O)N2CCN(C)CC2)C23CC4CC(CC(C4)C2)C3)CC1`, with inactive: 74%. In the case of `CC(=O)N(CN1C(=O)CCC1=O)c1ccc(Cl)c(Cl)c1`, the survival is inactive: 75%. Then `COc1cccc(CN2C(=O)c3ccccc3Sc3ccc(C(=O)NCCc4ccc(C)cc4)cc32)c1`, with inactive: 78%.

Regarding `O=C(CN1CCCC1)N/N=C/c1c(O)ccc2ccccc12`, the survival is inactive: 74%. Then `CC(O)c1nc2ccccc2n1Cc1ccccc1` (stereo not drawn), with inactive: 57%. Then `COc1ccc(-c2csc(-c3nc(-c4ccc(Br)s4)cs3)n2)cc1F`, with inactive: 61%. Then `COc1ccccc1C(=O)NCc1nnnn1-c1ccc(C)c(C)c1`, with inactive: 92%; and `CCC1CCCCN1CCCNC(=O)c1c(O)nc2ccccn2c1=O` (stereo not drawn), with inactive: 99%. For the compound `CCCC1=Nc2cc(C(=O)NCCc3ccc(OCC)cc3)ccc2Sc2ccccc21`, the survival is inactive: 59%.

Turning to `Cn1c(-c2ccccc2)cnc1NC(=O)c1ccc(F)cc1`, the survival was inactive: 81%.

Regarding `Cc1ccc(CNC(=O)C(=O)NCC(c2cccnc2)N2CCN(c3ccc(F)cc3)CC2)cc1` (stereo not drawn), the survival was inactive: 73%. In the case of `CCCc1nn2c(=O)cc(COC(=O)c3cccs3)nc2s1`, the survival is inactive: 118%. In the case of `CCOc1ccc(C(=O)c2cn(CC(=O)Nc3ccc4c(c3)OCCO4)c3ccc(OC)cc3c2=O)cc1` it was inactive: 90%.

With `Cc1ccccc1CNC(=O)Cn1ccc2cc(S(=O)(=O)N3CCCCC3)ccc21`, the survival was inactive: 119%. As for `COc1ccccc1NC(=O)c1sc2nc(C)c(C(=O)Nc3ccc(C)cc3C)c(-c3ccc(Br)cc3)c2c1N`, the survival was inactive: 89%. Then `Cc1ccc(C)c(NC(=O)c2nc(S(C)(=O)=O)ncc2N(Cc2ccc(C(C)(C)C)cc2)Cc2ccco2)c1`, with active: 55%.

Turning to `O=C(CCc1nc2ccccc2[nH]c1=O)OCc1ccc(Cl)cc1`, the survival was inactive: 98%. Regarding `Cc1ccn2cc(C(=O)NC3CCCCC3)nc2c1`, the survival is inactive: 49%. In the case of `CN1C(=O)Cc2cc(S(=O)(=O)N3CCN(c4cccc(C(F)(F)F)c4)CC3)ccc21` it was inactive: 116%; in that of `Cc1cccc(C(=O)Nc2ccc(C(=O)OCc3cc(=O)n4c5c(sc4n3)CCCC5)cc2)c1`, inactive: 101%; in that of `CCOc1ccc(C(=O)CSc2nc3cc(C(=O)NC4CCCC4)ccc3c(=O)n2CC2CCCO2)cc1` (stereo not drawn), active: 8%. For the compound `CC(=O)c1ccc(NC(=O)c2ccc3c(c2)nnn3C2CCCC2)cc1`, the survival was inactive: 81%. Then `COc1ccccc1C(=O)N1CCCCC1CCN1CCOCC1` (stereo not drawn), with inactive: 85%; and `Cc1cccc(NC(=O)Cn2cc(C(=O)C3CCCCC3)c3ccccc32)c1C`, with inactive: 63%. Then `O=C(Nc1ccc(-c2nc3cc(NC(=O)c4ccccc4F)ccc3o2)cc1)c1ccccc1F`, with inactive: 90%; and `N#Cc1ccccc1NC(=O)CSc1ncn[nH]1`, with inactive: 164%. `COc1ccccc1NC(=O)Cn1c(=O)n(Cc2cccs2)c(=O)c2cccnc21`: the survival is inactive: 70%. For the compound `CCN(CC)c1ccc2cc(-c3nc(-c4ccc(Cl)cc4Cl)cs3)c(=O)oc2c1`, the survival was active: 37%. In the case of `Cc1nc(-c2ccccc2)sc1-c1ccc(SCC(=O)NCc2ccccc2)nn1`, the survival is inactive: 58%. In the case of `CC(OC(=O)CCc1nc2ccccc2[nH]c1=O)C(=O)c1ccccc1` (stereo not drawn), the survival is inactive: 96%. As to `CCOC(=O)c1ccc(Nc2nc3nonc3nc2Nc2cccc(C)c2C)cc1`, the survival is active: -1%. Then `CCOc1ccc(CCn2c3c(c(=O)[nH]c2=O)C(NC(=O)c2ccccc2)(C(F)(F)F)C(=O)N3)cc1OCC` (stereo not drawn), with inactive: 68%. Then `CCCCCn1c(=O)[nH]c2cc(C(=O)N3CCN(c4cc(Cl)ccc4C)CC3)ccc2c1=O`, with inactive: 67%; and `CCOC(=O)N1CCC(NC(=O)c2ccc3c(c2)N(Cc2cc(C)ccc2C)C(=O)c2ccccc2S3(=O)=O)CC1`, with inactive: 55%. For the compound `Cc1ccccc1C(=O)OCc1cc(=O)n2nc(C3CC3)sc2n1`, the survival was inactive: 89%.

For the compound `Cc1ccc(C(=O)OCc2cc(=O)n3nc(-c4cccs4)sc3n2)cc1`, the survival was inactive: 95%. `CCOC(=O)c1c(S(=O)(=O)NCC(=O)Nc2cc(C)ccc2OC)c(C)n(C)c1C`: the survival was inactive: 82%. In the case of `CC(Sc1nnc(COc2ccccc2)n1-c1ccccc1)C(=O)O` (stereo not drawn) it was inactive: 78%.
